From patent US11999727B2 (Tango Therapeutics, Inc., priority 2020, dated 2024) come the findings set out here.

The target in experiment [1] is T1, PRMT5 (Homo sapiens, UniProt O14744).
T1 construct: purchased Viva (custom protein)
Nature of the experiment: PRMT5 biochemical IC50 assay with no cofactor. To be noted: read-out: No Cofactor/rel IC50. The text has this: Table 1 indicates IC50 values (μM) against PRMT5 for exemplary compounds in the presence of SAM as cofactor, with no cofactor, and with MTA as cofactor, respectively (columns 4-6). […] Ki values can be calculated from the IC50 values as described in the Examples section. As detailed in the Examples section, for the assay performed in the presence of SAM, IC50=Ki×1.5 (Ki=IC50/1.5).

Experiment [2] deals with T1, PRMT5. Put plainly: PRMT5 biochemical IC50 assay with SAM as cofactor.
Experiment [3] concerns the target T1, PRMT5. Nature of the experiment: PRMT5 biochemical IC50 assay with MTA as cofactor.

T1 sequence (O14744 whole entry): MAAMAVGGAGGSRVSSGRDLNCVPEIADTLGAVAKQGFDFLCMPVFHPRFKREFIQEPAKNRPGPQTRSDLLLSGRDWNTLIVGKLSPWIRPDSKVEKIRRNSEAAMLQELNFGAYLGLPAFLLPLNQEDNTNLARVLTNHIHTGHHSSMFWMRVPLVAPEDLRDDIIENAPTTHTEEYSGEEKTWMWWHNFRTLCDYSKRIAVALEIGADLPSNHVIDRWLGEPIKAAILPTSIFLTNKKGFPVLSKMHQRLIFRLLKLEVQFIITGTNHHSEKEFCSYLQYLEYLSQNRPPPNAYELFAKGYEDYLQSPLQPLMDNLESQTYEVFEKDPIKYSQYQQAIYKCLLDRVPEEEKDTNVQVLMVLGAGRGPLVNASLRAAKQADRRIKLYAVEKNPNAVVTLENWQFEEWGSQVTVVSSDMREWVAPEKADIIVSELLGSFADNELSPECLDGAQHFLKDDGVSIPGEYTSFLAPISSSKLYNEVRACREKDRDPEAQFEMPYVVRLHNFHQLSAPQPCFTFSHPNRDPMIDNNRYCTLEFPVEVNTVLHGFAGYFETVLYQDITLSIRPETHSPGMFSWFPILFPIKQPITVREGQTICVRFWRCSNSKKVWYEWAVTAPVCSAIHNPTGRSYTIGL
T1 sequence (Q9BQA1 whole entry partner): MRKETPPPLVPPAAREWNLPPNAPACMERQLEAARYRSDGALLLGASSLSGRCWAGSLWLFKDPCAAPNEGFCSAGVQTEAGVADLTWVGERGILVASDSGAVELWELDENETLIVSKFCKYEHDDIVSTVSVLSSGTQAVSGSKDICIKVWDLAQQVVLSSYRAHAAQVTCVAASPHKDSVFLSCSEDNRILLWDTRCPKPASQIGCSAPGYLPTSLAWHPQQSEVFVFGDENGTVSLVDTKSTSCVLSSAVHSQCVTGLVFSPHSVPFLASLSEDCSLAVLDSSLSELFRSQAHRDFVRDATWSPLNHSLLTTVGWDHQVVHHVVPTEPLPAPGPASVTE

Turning to `[2H][C@]1(c2ccc(F)cc2)CC[C@H](C)CN1C(=O)C(=O)Nc1cncc(C(N)=O)c1` [Compound 1065], the values for the IC50 at PRMT5 [1], against PRMT5 [2] and at PRMT5 [3] were 50 to 500 nM, 50 to 500 nM and below 50 nM, respectively.

As to `CCc1cc(NC(=O)C(=O)N2CC(C)CCC2c2ccc3[nH]c(=O)ccc3n2)cnc1N` (stereo not drawn) [Compound 1078], the IC50 on PRMT5 [1], at PRMT5 [2] and against PRMT5 [3] was 50 to 500 nM in each case.

Take `C[C@H]1CC[C@H](c2ccc3[nH]c(=O)ccc3n2)N(C(=O)C(=O)Nc2cncc(C(N)=O)c2)C1` (single isomer, unassigned) [Compound 1076]: the IC50 on PRMT5 [1], against PRMT5 [2] and against PRMT5 [3] was above 500 nM throughout.

For `Cc1cc(NC(=O)C(=O)N2C[C@@H](C)CC[C@@H]2c2ccc3c(c2)C(=O)NCC3)cnc1N` (single isomer, unassigned) [Compound 1046], the IC50 on PRMT5 [1], on PRMT5 [2] and at PRMT5 [3] was above 500 nM each time.

`Cc1cc(NC(=O)C(=O)N2C[C@H](C)CC[C@H]2c2ccc3c(c2)C(=O)NCC3)cnc1N` (single isomer, unassigned) [Compound 1073]: the figures for the IC50 on PRMT5 [1], against PRMT5 [2] and at PRMT5 [3] were 50 to 500 nM, 50 to 500 nM and below 50 nM, respectively.

Take `C[C@@H]1CC[C@@H](c2ccc3[nH]c(=O)ccc3n2)N(C(=O)C(=O)Nc2cncc(C(N)=O)c2)C1` (single isomer, unassigned) [Compound 1079]: the IC50 at PRMT5 [1] was below 50 nM; at PRMT5 [2], 50 to 500 nM; against PRMT5 [3], below 50 nM.

As for `[2H][C@@]1(c2ccc(F)cc2)CC[C@@H](C)CN1C(=O)C(=O)Nc1cncc(C(N)=O)c1` [Compound 1064], the IC50 at PRMT5 [1], against PRMT5 [2] and on PRMT5 [3] was above 500 nM each time.

Take `[2H]c1c([2H])c([C@H]2CC[C@H](C)CN2C(=O)C(=O)Nc2cncc(C(N)=O)c2)c([2H])c([2H])c1F` [Compound 1062]: the IC50 on PRMT5 [1] was 50 to 500 nM; against PRMT5 [2], 50 to 500 nM; on PRMT5 [3] it was below 50 nM.

Consider `O=C(Nc1cncc(C(=O)NO)c1)C(=O)N1CCCCC1c1ccccc1` (stereo not drawn) [Compound 378, N-hydroxy-5-(2-oxo-2-(2-phenylpiperidin-1-yl)acetamido)nicotinamide], for which the IC50 was above 500 nM at PRMT5 [1], above 500 nM against PRMT5 [2] and 50 to 500 nM against PRMT5 [3].

Regarding `Cc1cc(NC(=O)C(=O)N2CC(C)C(F)(F)C[C@H]2c2cccc(Cl)c2)cnc1N` (single isomer, unassigned) [Compound 1074], the IC50 was below 50 nM on PRMT5 [1], 50 to 500 nM against PRMT5 [2] and below 50 nM at PRMT5 [3].

Consider `Cc1cc(NC(=O)C(=O)N2C[C@H](C)C(F)(F)C[C@H]2c2ccc3scnc3c2)cnc1N` (single isomer, unassigned) [Compound 1069], for which the IC50 at PRMT5 [1], on PRMT5 [2] and on PRMT5 [3] was above 500 nM throughout.

`COc1ncc(NC(=O)C(=O)N2CC(C)CCC2c2ccc3[nH]c(=O)ccc3n2)cc1C(N)=O` (stereo not drawn) [Compound 1077, 2-methoxy-5-[[2-[5-methyl-2-(6-oxo-5H-1,5-naphthyridin-2-yl)-1-piperidyl]-2-oxo-acetyl]amino]pyridine-3-carboxamide]: the IC50 on PRMT5 [1], at PRMT5 [2] and on PRMT5 [3] was 50 to 500 nM throughout.

As to `COc1ncc(NC(=O)C(=O)N2C[C@H](C)C(F)(F)C[C@H]2c2ccc(NS(C)(=O)=O)cc2)cc1C(N)=O` (single isomer, unassigned) [Compound 1052], the IC50 at PRMT5 [1] is above 500 nM; at PRMT5 [2] it was above 500 nM; at PRMT5 [3], 50 to 500 nM.

As to `[2H]c1c([2H])c([C@@H]2CC[C@@H](C)CN2C(=O)C(=O)Nc2cncc(C(N)=O)c2)c([2H])c([2H])c1F` [Compound 1063], the IC50 on PRMT5 [1], on PRMT5 [2] and at PRMT5 [3] was above 500 nM in each case.

As for `[2H]c1c([2H])c([C@]2([2H])CC[C@@H](C)CN2C(=O)C(=O)Nc2cncc(C(N)=O)c2)c([2H])c([2H])c1F` [Compound 1066], the IC50 at PRMT5 [1], at PRMT5 [2] and against PRMT5 [3] was above 500 nM throughout.
